In the RNAGym collection of RNA variant scans (doi:10.7554/elife.90254):
Read counts are not given, so values of variants with three or more changes are uncertain.

B1: LINE1-mini (parent)
chain: GGCAGAGCUCAACACAGCGUGGCAAAGUGGCUGUGGCUAGACUGCC

Variants of: B1
Assay: self-cleavage, relative activity (ratio to wild type); higher = more cleavage; in vitro, sequencing; the parent is a self-cleaving ribozyme

| Variant | self-cleavage |
| --- | --- |
| A11U G19A U20A A25U U28A G29U G40A G44C | 0 |
| A11U C13A C31G | 0.02 |
| A12C C18G G30U C37A | 0 |
| A12C A14C U20G G21U | 0.01 |
| A11U G27C U28A G33A C42G | 0 |
| A11U G30U G40C | 0.02 |
| A11U A25C A39C | 0.01 |
| A11U A14C C15G G29U G30U C31A G36C | 0.01 |
| A12C A16U C23U | 0.01 |
| A12C A16C G33A C45G | 0.02 |
| A12C C13A C18G | 0.02 |
| A11U A26C G27U G33U | 0.02 |
| A11U G30U G33C | 0.02 |
| A12C A24C C42A | 0.01 |
| A11U U20G G36A G40A | 0 |
| A11G G40A C46A | 0 |
| A11U U28C G29C C46A | 0.02 |
| A12C C15A A16U | 0.02 |
| A11U G22U G27C A41C | 0.01 |
| A11U G19A C31A | 0.01 |
| A11U G19U A26G G27A G29U | 0.05 |

| Variant | self-cleavage |
| --- | --- |
| A11U G21U C45G | 0.02 |
| A11U C13A A26G | 0.03 |
| A11U G17C U32G G33U | 0.03 |
| A11U G19C U38A C42G G44C | 0.01 |
| A11U C13G G21U | 0.01 |
| A12C C18U G40A | 0.01 |
| A11G G35U G36U C37U | 0.06 |
| A11G U28A G33U A39U | 0.01 |
| A11U U20A A24U G29U | 0.09 |
| A12C C23G U34A G40A C45G | 0 |
| A12C C18U G33U C46U | 0 |
| A12C A25C G35U | 0.03 |
| A11U G21U A26U G29U | 0.06 |
| A11U A12G C13G U28A U38A | 0.01 |
| A11U A16C G17A A26U G35C | 0.01 |
| A12C A16C G29A A41C | 0 |
| A11U G19C A24G A26U | 0.02 |
| A11U G17C A41C G44U | 0.02 |
| A11U G17A U38A G40U | 0.02 |
| A11U A12G A16U C45A | 0.02 |
| A11U A25U U32A | 0.03 |

| Variant | self-cleavage |
| --- | --- |
| A12C C13A G30A U34G C45G | 0 |
| A12C C13U U20G G22A A24U G29A C31U G33A | 0.05 |
| A11U C23G A24C U28C U43A | 0.02 |
| A12C C15G A16G A39U G40A | 0.01 |
| A11U C15A G19U | 0.07 |
| A12C A14U A16C C45G | 0.04 |
| A11U C15U G29C C31U | 0.5 |
| A11G U28A G29C U34G | 0.01 |
| A11U A14G C18A G33A C45U | 0.02 |
| A11U A14U U32A | 0 |
| A11U C13G A16C G19A C31A C45U | 0 |
| A11U A16C G17U C31G G33C | 0 |
| A11G G30U A41U | 0.01 |
| A11U A24U G33U U38G | 0.02 |
| A12C C18A C46A | 0.04 |
| A11U U38G A41C | 0.01 |
| A12C A16C G27C C45U | 0.01 |
| A11U A12U C13G C15A G17U C18A | 0.03 |
| A11U A16G C23U C31G C42G | 0 |
| A12C C18A C37U C46U | 0 |
| A11U C18U U32C | 0.01 |

| Variant | self-cleavage |
| --- | --- |
| A12C C18U G19A | 0.02 |
| A12C A26C C31A U34C | 0.01 |
| A12C C31A G35C | 0 |
| A11G U32A A41G | 0.02 |
| A11U A14C A25U U38A | 0.02 |
| A11G U20A G22U G33U | 0.02 |
| A11U A16U G19A | 0.04 |
| A11U A24C G33U A39C | 0.02 |
| A12C A14C C18U G19C U28C G40U A41C | 0.02 |
| A11G U20C C37U U38G | 0.01 |
| A12C A16U U28G G30A U32C C37G C45G | 0 |
| A11U A14U G33U G35C | 0 |
| A12C A25U G35A C45A | 0.01 |
| A11G U28G G29U C46G | 0.01 |
| A11G U32C G33A G40A G44A | 0 |
| A12C A14G C18U G29C | 0.06 |
| A11U A14U A24G | 0.04 |
| A11U A14U A24C | 0.05 |
| A12C A26U C46U | 0.01 |
| A11U A14U A25U C46A | 0.03 |
